# Assay results: PubChem BioAssay AID1671193 (National Center for Advancing Translational Sciences (NCATS), 2021)
# Hit rate of the full screen: of about 150,000 compounds, about 180 (0.12%) were called active. This list was built around the results that the source calls inconclusive (neither active nor inactive); the mix of calls is not that of the screen. Calls come from the whole dose curve; as a rule, active = well fitted cell-killing curve with a large enough effect; inconclusive = small, poorly fitted or top-dose-only effect, or effect the other way; inactive = flat fitted curve, though single readings scatter. Where the call is inconclusive, the potency comes from a doubtful curve fit.
# Assay: GF-AFC viability counterscreen for inhibitors of alpha-synuclein gene (SNCA) expression; note: nearly all actives have a fitted effect of over 30% in size;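 for activity change, negative = cytotoxicity: 0% = DMSO-treated cells and -100% = medium-only wells without cells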
# Settings: HEK-293-SNCA-luc viability, GF-AFC fluorescence, 24 h; activity change, negative = cytotoxicity: at 57.1 µM (top of the series) unless noted
# Method in brief: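 Cytotoxicity counterscreen: after 24 h compound treatment of genome-edited SNCA-luciferase HEK-293 cells, live-cell protease substrate GF-AFC read by fluorescence after 30 min; activity scaled between DMSO (0%) and medium-only (-100%), curves Hill-fitted.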
# Potency is the fitted concentration of half-maximal effect; tags give direction and shape of the fitted curve.
Structure (SMILES),Potency,"activity change, negative = cytotoxicity"
COc1ccc(OC)c(NC(=O)Cn2c(N3CCc4ccccc4C3)nc(C)cc2=O)c1,"inconclusive: 25.1 µM [cytotoxic, partial curve, poor fit]",–
Cc1ncnc(N2CCC(CO)(Cc3ccccc3C(F)(F)F)CC2)c1C,"inconclusive: 39.8 µM [cytotoxic, partial curve, poor fit]",–
Cc1ccc(CCNC(=O)c2ccc(CS(=O)(=O)Cc3ccccc3F)o2)cc1,"inconclusive: 22.4 µM [cytotoxic, single point]",–
Cc1ccc(C)c(N2CCN(CCCNC(=O)Nc3ccc(Cl)cc3)CC2)c1,"inconclusive: 25.1 µM [cytotoxic, single point]",–
Nc1ncnc2c1nc(N)n2[C@@H]1O[C@H](CO)[C@@H](O)[C@H]1O,"inconclusive: 5.32 µM [cytotoxic, full curve, poor fit]",–
CCCCN(C)C(=O)Cn1c(SCC(=O)Nc2ccc(C)c(C)c2)nc2ccccc21,"inconclusive: 11.2 µM [cytotoxic, partial curve, poor fit]",–
COc1ccc(C2Cn3cnc(C(=O)N4CCC(C(=O)NC5CCCC5)CC4)c3CO2)cc1 (centres undefined),"inconclusive: 25.1 µM [rising, single point]",–
Cc1cccc(N(C)C(=O)Cn2cccc2-c2nc(-c3ccccc3)no2)c1,"inconclusive: 17.8 µM [cytotoxic, partial curve, poor fit]",–
O=C(CC1=CCCCC1)N1CCC(C2CCNC2)CC1 (centres undefined),–,inactive: -8.91% [at 12.5 µM]
Cc1ccccc1-c1cnc2[nH]cc(CC(=O)Nc3cccnc3)c2c1,"inconclusive: 35.5 µM [cytotoxic, partial curve, poor fit]",–
CN1C(=O)CS(=O)(=O)C12CCN(C(=O)c1ccc3c(c1)OCO3)CC2,"inconclusive: 28.2 µM [cytotoxic, single point]",–
CC(C)CC(=O)N1CCOCC12CCN(Cc1ccc(C(C)C)cc1)CC2,inactive,–
CCOC(=O)c1cc2c(=O)n3ccccc3nc2n(Cc2ccco2)c1=NC(=O)c1ccc(OCC)cc1,"inconclusive: 5.01 µM [rising, full curve, poor fit]",–
O=C(Nc1ccccc1)[C@H]1O[C@H](CCN2CCN(c3ccccn3)CC2)CC[C@@H]1O,inactive,–
CCCc1noc(-c2ccn3c(CNC(=O)c4ccc(C)c(F)c4)nnc3c2)n1,inactive,–
O=C(CCCc1ccccc1)N1CCC2(CC1)CC(Cc1nc(-c3cccnc3)no1)CCO2 (centres undefined),"inconclusive: 25.1 µM [cytotoxic, single point]",–
CN(C)C1CCN(c2ccc(-c3nc(CCCc4ccccc4)no3)cn2)CC1,"inconclusive: 15.8 µM [rising, partial curve, poor fit]",–
CC(C)CNC(=O)C1CCCN1Cc1ccc(-c2cncnc2)cc1 (centres undefined),"inconclusive: 56.2 µM [cytotoxic, single point]",–
COc1ccc(F)cc1-c1cccc(C(=O)NCCNC(=O)Cc2ccc(F)cc2)c1,–,inactive: 0.276% [at 12.5 µM]
CCCN(CCC)CCCNC(=O)Cn1cnc2sc(C)c(S(=O)(=O)N3CCC(C)CC3)c2c1=O,inactive,–
CCOCCCn1c(=N)c(C(=O)NCC2CCCO2)cc2c(=O)n3cccc(C)c3nc21 (centres undefined),"inconclusive: 22.4 µM [rising, partial curve]",–
COCCN1C(=O)CS(=O)(=O)C12CCN(C(=O)Cn1c(=O)oc3ccccc31)CC2,"inconclusive: 7.08 µM [cytotoxic, single point]",–

Structure (SMILES),Potency,"activity change, negative = cytotoxicity"
O=C(NCc1nc(-c2cccc(F)c2)c(-c2ccccn2)[nH]1)[C@@H]1CCCCN1,"inconclusive: 12.6 µM [cytotoxic, partial curve, poor fit]",–
O=C(NCC1CCOCC1)c1cnc2n[nH]c(-c3ccccc3)c2n1,inactive,–
COCC1CN(C2CCC2)CC12CCN(C(=O)NCc1ccccc1)CC2 (centres undefined),inactive,–
O=C(Cc1ccccc1)N1CCC2(CCCCO2)CC1,"inconclusive: 3.55 µM [cytotoxic, single point]",–
Cc1ccc(C(=O)NCc2ccc(F)cc2)cc1NC(=O)c1nsc2ccccc12,"inconclusive: 20 µM [cytotoxic, partial curve, poor fit]",–
O=C(CCNc1c(-c2cccc(F)c2)nc2cnccn12)NCc1ccccc1,"inconclusive: 25.1 µM [rising, partial curve, poor fit]",–
CC(=O)N1CCN(c2nc3c(s2)CC(C(=O)Nc2cc(Cl)ccc2F)CC3)CC1 (centres undefined),"inconclusive: 25.1 µM [cytotoxic, single point]",–
N#Cc1cccc(CN2CCOC[C@H]2c2ncc(-c3ccc(Cl)s3)[nH]2)c1,inactive,–
Cc1nc(N)ncc1-c1nc(N2CCOCC2)c2sc(C(C)(C)O)cc2n1,"inconclusive: 19.2 µM [cytotoxic, partial curve, poor fit]",–
Cc1nc(C)c(C(=O)N2CCC(Oc3ccc(-c4noc(-c5ccccc5)n4)cc3)C2)s1 (centres undefined),"inconclusive: 15.8 µM [cytotoxic, partial curve, poor fit]",–
CC(Oc1ccccc1)C(=O)N1CCC(Cc2nncn2C(C)C)CC1 (centres undefined),inactive,–
Cc1cnc(CC2CCCN(C(=O)CCc3c[nH]c4ccccc34)C2)n1C(C)C (centres undefined),inactive,–
Cc1ccccc1-c1noc(-c2ccc(NC(C)c3cnn(C)c3)nc2)n1 (centres undefined),"inconclusive: 39.8 µM [cytotoxic, single point]",–
O=C(Cc1ccccc1)Nc1ccnn1C1CCN(Cc2cccn2-c2ccccn2)CC1,"inconclusive: 14.1 µM [cytotoxic, partial curve, poor fit]",–
O=C1NC(=NC2CCCCC2)C2(CCN(Cc3ccc(F)cc3)C2)N1c1cc(F)cc(F)c1 (centres undefined),"inconclusive: 35.5 µM [cytotoxic, single point]",–
O=C(NCc1cccs1)C1CCCN(c2ccnc3ccnn23)C1 (centres undefined),"inconclusive: 35.5 µM [cytotoxic, single point]",–
O=C(C1CCCC1)N1C[C@@H](CO)[C@H](c2ccncc2)C1,active: 20 µM,–
Nc1ccn([C@@H]2O[C@H](CO)[C@H](O)C2(F)F)c(=O)n1,"inconclusive: 0.271 µM [cytotoxic, full curve, poor fit]",–
O=C(O)CCCC(=O)N1Cc2ccccc2CC2(CCCN2CC2CCCCC2)C1 (centres undefined),inactive,–
CCOc1ccc(Nc2c(S(=O)(=O)c3ccccc3)cnc3ccccc23)cc1,"inconclusive: 28.2 µM [cytotoxic, single point]",–
CCCN(CCC)C(=O)c1cc2c(=O)n3cccc(C)c3nc2n1C,"inconclusive: 25.1 µM [rising, single point]",–
O=C(Cc1ccsc1)N1CCOc2ccc(CN3CCCCCC3)cc2C1,inactive,–

Structure (SMILES),Potency,"activity change, negative = cytotoxicity"
COCc1nc(C2CCNC2)no1 (centres undefined),"inconclusive: 3.16 µM [cytotoxic, single point]",–
COc1ccc(CCC(=O)NCCc2csc(-c3ccc(Cl)cc3)n2)cc1,"inconclusive: 6.31 µM [rising, single point]",–
CC1=C[C@@H](CNC(=O)CN(C)C)[C@H](C(C)C)C[C@H]1Cc1nc2ccccc2[nH]1,"inconclusive: 44.7 µM [cytotoxic, partial curve, poor fit]",–
CCn1ncc(CN2CCC3(CCC3OC)CC2)c1C (centres undefined),"inconclusive: 35.5 µM [cytotoxic, single point]",–
O=C(c1ccc(F)cc1)N1CCCC(C(=O)N2CCCC(c3nc4ncccc4[nH]3)C2)C1 (centres undefined),inactive,–
COc1ccc(CN2CCC(CO)(CN3CCCC3)CC2)cc1OC,inactive,–
C=C[C@@]12COC(=O)C(=C)[C@@H]1[C@@H](O)[C@H](C(=C)C(=O)OC)[C@@H](O)C2,"inconclusive: 29.3 µM [cytotoxic, partial curve, poor fit]",–
COc1ccc(NC(=O)c2c(C)oc3ccc(O)c(CN4CCN(Cc5ccccc5)CC4)c23)cc1,"inconclusive: 25.1 µM [cytotoxic, single point]",–
CC1=Nc2cc(C(=O)NCCCN(C)C)ccc2Sc2ccc(Cl)cc21,inactive,–
CCOC(=O)c1ccc(N2C(=O)c3n[nH]c(-c4cccs4)c3C2c2ccc(Cl)cc2Cl)cc1 (centres undefined),active: 22.4 µM,–
C#CCNC(=O)[C@@H]1Cc2cn(CC=C)c3cccc(c23)[C@H](CC(C)C)N1,"inconclusive: 28.2 µM [cytotoxic, partial curve, poor fit]",–
Cc1ccccc1Nc1c(-c2ccncc2)nc2ccc(Cl)cn12,"inconclusive: 39.8 µM [cytotoxic, single point]",–
O=C(c1ccc(CS(=O)c2ccccc2Cl)o1)N1CCN(c2cccc(Cl)c2)CC1 (centres undefined),"inconclusive: 1 µM [cytotoxic, full curve, poor fit]",–
CCCNC(=O)N1CCN(S(=O)(=O)c2ccc3c(ccn3C)c2)CC1,"inconclusive: 1 µM [rising, full curve, poor fit]",–
Cc1ccc(Cl)cc1NS(=O)(=O)c1cc2c3c(c1)CC(=O)N3CCC2,"inconclusive: 28.2 µM [cytotoxic, partial curve, poor fit]",–
CCC(Sc1nc2nccnc2c(=O)n1Cc1ccc(C)cc1)C(=O)NC1CCCCC1 (centres undefined),"inconclusive: 25.1 µM [cytotoxic, single point]",–
N#Cc1cccc(C(=O)NC2CCN(c3cc(-c4ccc(F)cc4)[nH]n3)C2)c1 (centres undefined),inactive,–
O=C(C1CCCCN1Cc1ccc(-c2ccsc2)cc1)N1CCC(Cc2ccccc2)CC1 (centres undefined),"inconclusive: 25.1 µM [cytotoxic, single point]",–
CCCn1ccnc1CN1CCCn2nc(-c3nc4ccccc4n3C)cc2C1,inactive,–
Cc1cc(C)c(CNC(=O)c2nc(-c3cccc(O)c3)cc3c2ccn3C(C)C)c(=O)[nH]1,"inconclusive: 56.2 µM [cytotoxic, single point]",–
